Test results as given in the antibiotic and cytotoxicity screens of Wong et al. (2023).
Some of the results follow.

The molecules below were run on HSkMC (human skeletal muscle cells) (assay: cytotoxicity call (relative viability < 0.9)). Conditions: 10 µM.

Row | Compound | cytotoxicity call
1 | COc1ccc(S(=O)(=O)N(C)C[C@H]2Oc3ccc(NC(=O)NC(C)C)cc3CC(=O)N([C@H](C)CO)C[C@@H]2C)cc1 | inactive
2 | COc1ccc(NC(=O)[C@H]2[C@@H](c3ccc(C)cc3)CC(=O)N2C(=O)OCc2ccccc2)c2ncccc12 | inactive
3 | O=C(N[C@@H](c1ccc(-c2ccccc2)cc1)c1cnccn1)C1CCN(Cc2ccc(Oc3ccccc3)cc2)CC1 | inactive
4 | COc1ccc(CN(C)C[C@H]2Oc3ccc(NC(=O)Cn4cnnn4)cc3C(=O)N([C@H](C)CO)C[C@@H]2C)cc1 | inactive
5 | COc1ccc(NC(=O)N(C)C[C@@H]2Oc3ccc(NC(=O)Nc4cccc5ccccc45)cc3C(=O)N([C@@H](C)CO)C[C@@H]2C)cc1 | inactive
6 | CC(C)NC(=O)N(C)C[C@H]1OCCCC[C@@H](C)Oc2ccc(NS(=O)(=O)c3cn(C)cn3)cc2C(=O)N([C@@H](C)CO)C[C@H]1C | inactive
7 | C[C@H]1CN([C@@H](C)CO)C(=O)Cc2cc(NC(=O)Nc3ccc(C(F)(F)F)cc3)ccc2O[C@@H]1CN(C)Cc1ccc(C(=O)O)cc1 | inactive
8 | CC(C)NC(=O)N(C)C[C@H]1Oc2ccc(NS(=O)(=O)c3cn(C)cn3)cc2CC(=O)N([C@H](C)CO)C[C@H]1C | inactive
9 | COCC#Cc1ccc2c(c1)O[C@@H](CN(C)S(=O)(=O)c1cccc(OC)c1)[C@@H](C)CN([C@H](C)CO)S2(=O)=O | inactive
10 | C[C@@H]1CN([C@@H](C)CO)C(=O)Cc2cc(NC(=O)Cn3cnnn3)ccc2O[C@H]1CN(C)Cc1ccc(Cl)c(Cl)c1 | inactive
11 | Nc1nc(Cl)nc2c1ncn2[C@H]1C[C@@H](O)[C@@H](CO)O1 | inactive
12 | CC(CN(C)C)CN1c2ccccc2Sc2ccccc21.O=C(O)C(O)C(O)C(=O)O (stereo not given) | inactive
13 | C[C@@H]1CCCCO[C@H](CN(C)C(=O)Nc2ccccc2)[C@H](C)CN([C@@H](C)CO)C(=O)c2cc(NS(=O)(=O)c3ccccc3)ccc2O1 | inactive
14 | C[C@@H]1O[C@@H](O[C@@H]2[C@@H](O)[C@H](OCCc3ccc(O)c(O)c3)O[C@H](COC(=O)/C=C/c3ccc(O)c(O)c3)[C@H]2O)[C@H](O)[C@H](O)[C@H]1O | inactive
15 | C[C@@H]1CN([C@@H](C)CO)C(=O)c2cc(NS(=O)(=O)c3ccc(Cl)cc3)ccc2O[C@@H](C)CCCCO[C@H]1CN(C)S(=O)(=O)c1ccc(F)cc1 | inactive
16 | C[C@@H]1CCCCO[C@H](CN(C)Cc2ccc(C(=O)Nc3ccccc3N)cc2)[C@@H](C)CN([C@@H](C)CO)C(=O)c2cc(NS(=O)(=O)c3ccc(Cl)cc3)ccc2O1 | inactive
17 | C[C@@H]1CCCCO[C@H](CN(C)Cc2ccc(C(F)(F)F)cc2)[C@@H](C)CN([C@H](C)CO)C(=O)c2cc(NC(=O)Nc3ccc4c(c3)OCO4)ccc2O1 | inactive
18 | C[C@@H]1CN([C@H](C)CO)C(=O)c2cc(NC(=O)Nc3ccccc3)ccc2O[C@H]1CN(C)S(C)(=O)=O | inactive
19 | Cc1ccc(-c2ccc3c(c2)O[C@@H](CN(C)C(=O)Nc2ccc(C(F)(F)F)cc2)[C@@H](C)CN([C@H](C)CO)S3(=O)=O)cc1 | inactive
20 | COC1C(O)CC(=O)OC(C)CC=CC=CC(OC2CCC(N(C)C)C(C)O2)C(C)CC(CC=O)C1OC1OC(C)C(OC2CC(C)(O)C(O)C(C)O2)C(N(C)C)C1O (stereo not given) | inactive

Row | Compound | cytotoxicity call
21 | C[C@@H]1CCCCO[C@H](CN(C)C(=O)Cc2ccccc2)[C@H](C)CN([C@@H](C)CO)C(=O)c2cc(NC(=O)Nc3ccc4c(c3)OCO4)ccc2O1 | inactive
22 | NS(=O)(=O)c1cc2c(cc1Cl)NC(C(Cl)Cl)NS2(=O)=O (stereo not given) | inactive
23 | CCO[C@H]1OC(C(=O)N2CCN(Cc3ccc4c(c3)OCO4)CC2)=C[C@@H](c2ccc(C(F)(F)F)cc2)[C@@H]1CCCOC(=O)NCCCCCC(=O)NO | inactive
24 | Cc1ccc(S(=O)(=O)Nc2ccc3c(c2)C(=O)N([C@H](C)CO)C[C@H](C)[C@H](CN(C)S(=O)(=O)c2c(C)noc2C)O3)cc1 | inactive
25 | COc1ccc(CN2C[C@H](C)[C@H](OC)CN(C)C(=O)c3cc(NC(=O)c4nc5ccccc5s4)ccc3OC[C@@H]2C)cc1 | inactive
26 | C[C@@H]1CN([C@@H](C)CO)C(=O)c2cccc(N(C)C)c2O[C@H]1CN(C)S(=O)(=O)c1ccc(Cl)cc1 | inactive
27 | C[C@@H]1CCCCO[C@@H](CN(C)Cc2ccc(C(F)(F)F)cc2)[C@H](C)CN([C@H](C)CO)C(=O)c2cc(NC(=O)CCCN(C)C)ccc2O1 | inactive
28 | COc1cccc(C#Cc2ccc3c(c2)O[C@H](CN(C)C(=O)c2ccccn2)[C@H](C)CN([C@H](C)CO)S3(=O)=O)c1 | inactive
29 | C[C@@H]1CN([C@@H](C)CO)C(=O)c2cc(NC(=O)Nc3ccc(F)cc3)ccc2O[C@H]1CN(C)CC1CCCCC1 | inactive
30 | C[C@H](CO)N1C[C@H](C)[C@@H](CN(C)Cc2ccc3c(c2)OCO3)Oc2c(NC(=O)C3CCOCC3)cccc2C1=O | inactive
31 | Cc1noc(C)c1S(=O)(=O)Nc1ccc2c(c1)CC(=O)N([C@H](C)CO)C[C@@H](C)[C@@H](CN(C)Cc1ccc(-c3ccccc3)cc1)O2 | inactive
32 | CC(C)NC(=O)N(C)C[C@@H]1OCCCC[C@@H](C)Oc2ccc(NC(=O)Nc3cccc4ccccc34)cc2C(=O)N([C@@H](C)CO)C[C@H]1C | inactive
33 | NNC(=O)c1cccc([N+](=O)[O-])c1 | inactive
34 | Cc1noc(C)c1NC(=O)N(C)C[C@@H]1OCCCC[C@@H](C)Oc2ccc(NS(=O)(=O)c3cccs3)cc2C(=O)N([C@@H](C)CO)C[C@H]1C | inactive
35 | O=C(c1ccncc1)N1C[C@@H]2[C@H](c3ccccc31)[C@H](CO)N2C(=O)CN1CCOCC1 | inactive
36 | CCc1cccc(NC(=O)O[C@H]2[C@H](OC(=O)Nc3ccccc3-c3ccccc3)[C@H](OC(=O)Nc3ccccc3-c3ccccc3)[C@@H](OC)O[C@@H]2CO)c1 | inactive
37 | CO[C@H]1CN(C)C(=O)c2ccc(NC(=O)c3ccccc3)cc2OC[C@@H](C)N(C(=O)CN(C)C)C[C@H]1C | inactive
38 | O=C(C[C@@H]1C=C[C@H](NC(=O)CN2CCOCC2)[C@H](CO)O1)NC1CCCCC1 | inactive
39 | C[C@H]1CN([C@@H](C)CO)C(=O)Cc2cc(NS(=O)(=O)c3cccs3)ccc2O[C@@H]1CN(C)S(=O)(=O)c1ccc(F)cc1 | inactive
40 | C[C@@H]1CCCCO[C@@H](CN(C)S(=O)(=O)c2cn(C)cn2)[C@@H](C)CN([C@@H](C)CO)C(=O)c2cc(N(C)C)ccc2O1 | inactive
